Test results from the supplement of paper PMC8728848.
This is one part of the list.

What was measured:
Experiment in all cases: glycan array binding signal (z-score within array); higher = stronger binding
Details in all cases: glycan notation: IUPAC condensed, linker removed
[1] = molecular target: Glc(b1-6)Glc
In short: (§1)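 Glycan array data came from 3228 arrays in the Consortium for Functional Glycomics database, and only arrays with an available protein sequence were kept. Glycan names were put into IUPAC-condensed notation, and columns mapping to the same glycan were averaged. The binding signal is a within-array Z-score, averaged across arrays of one protein sequence run at different concentrations or buffers and across linkers. A negative Z-score can be read as non-binding.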

[2] = molecular target: GlcA(b1-3)Gal
In short: as §1

[3] = molecular target: GlcA(b1-3)GlcNAc
In short: as §1

[4] = molecular target: GlcA(b1-6)Gal
In short: as §1

[5] = molecular target: GlcA3S(b1-3)Gal(b1-4)GlcNAc(b1-2)Man
In short: as §1

[6] = molecular target: GlcA3S(b1-3)Gal(b1-4)GlcNAc(b1-3)Gal(b1-4)Glc
In short: as §1

[7] = molecular target: GlcNAc(a1-3)Gal(b1-4)GlcNAc
In short: as §1

[8] = molecular target: GlcNAc(a1-4)Gal(b1-3)GlcNAc
In short: as §1

[9] = molecular target: GlcNAc(a1-4)Gal(b1-4)GalNAc
In short: as §1

[10] = molecular target: GlcNAc(a1-4)Gal(b1-4)GlcNAc
In short: as §1

[11] = molecular target: GlcNAc(a1-4)Gal(b1-4)GlcNAc(b1-3)Gal(b1-4)Glc
In short: as §1

[12] = molecular target: GlcNAc(a1-4)Gal(b1-4)GlcNAc(b1-3)Gal(b1-4)GlcNAc
In short: as §1

[13] = molecular target: GlcNAc(a1-4)Gal(b1-4)GlcNAc(b1-3)Gal(b1-4)GlcNAc(b1-3)Gal(b1-4)GlcNAc
In short: as §1

[14] = molecular target: GlcNAc(a1-4)Gal(b1-4)GlcNAc(b1-3)Gal(b1-4)[Fuc(a1-3)]GlcNAc(b1-3)Gal(b1-4)[Fuc(a1-3)]GlcNAc
In short: as §1

[15] = molecular target: GlcNAc(a1-6)Gal(b1-4)GlcNAc
In short: as §1

[16] = molecular target: GlcNAc(b1-2)Gal(b1-3)GalNAc
In short: as §1

[17] = molecular target: GlcNAc(b1-2)Man(a1-3)[GlcNAc(b1-2)Man(a1-6)]Man(b1-4)GlcNAc(b1-4)GlcNAc
In short: as §1

[18] = molecular target: GlcNAc(b1-2)Man(a1-3)[GlcNAc(b1-2)Man(a1-6)]Man(b1-4)GlcNAc(b1-4)[Fuc(a1-6)]GlcNAc
In short: as §1

[19] = molecular target: GlcNAc(b1-2)Man(a1-3)[GlcNAc(b1-4)][GlcNAc(b1-2)Man(a1-6)]Man(b1-4)GlcNAc(b1-4)GlcNAc
In short: as §1

[20] = molecular target: GlcNAc(b1-2)Man(a1-3)[GlcNAc(b1-4)][GlcNAc(b1-2)Man(a1-6)]Man(b1-4)GlcNAc(b1-4)[Fuc(a1-6)]GlcNAc
In short: as §1

[21] = molecular target: GlcNAc(b1-2)[GlcNAc(b1-4)]Man(a1-3)[GlcNAc(b1-2)Man(a1-6)]Man(b1-4)GlcNAc(b1-4)GlcNAc
In short: as §1

[22] = molecular target: GlcNAc(b1-2)[GlcNAc(b1-4)]Man(a1-3)[GlcNAc(b1-4)][GlcNAc(b1-2)Man(a1-6)]Man(b1-4)GlcNAc(b1-4)GlcNAc
In short: as §1

[23] = molecular target: GlcNAc(b1-2)[GlcNAc(b1-4)]Man(a1-3)[GlcNAc(b1-4)][GlcNAc(b1-2)[GlcNAc(b1-6)]Man(a1-6)]Man(b1-4)GlcNAc(b1-4)GlcNAc
In short: as §1

[24] = molecular target: GlcNAc(b1-2)[GlcNAc(b1-4)]Man(a1-3)[GlcNAc(b1-4)][GlcNAc(b1-2)[GlcNAc(b1-6)]Man(a1-6)]Man(b1-4)GlcNAc(b1-4)[Fuc(a1-6)]GlcNAc
In short: as §1

[25] = molecular target: GlcNAc(b1-2)[GlcNAc(b1-6)]Man(a1-6)[GlcNAc(b1-2)Man(a1-3)]Man(b1-4)GlcNAc(b1-4)GlcNAc
In short: as §1

[26] = molecular target: GlcNAc(b1-2)[GlcNAc(b1-6)]Man(a1-6)[GlcNAc(b1-2)Man(a1-3)]Man(b1-4)GlcNAc(b1-4)[Fuc(a1-6)]GlcNAc
In short: as §1

[27] = molecular target: GlcNAc(b1-2)[GlcNAc(b1-6)]Man(a1-6)[GlcNAc(b1-4)][GlcNAc(b1-2)Man(a1-3)]Man(b1-4)GlcNAc(b1-4)GlcNAc
In short: as §1

[28] = molecular target: GlcNAc(b1-3)Fuc
In short: as §1

[29] = molecular target: GlcNAc(b1-3)Gal
In short: as §1

[30] = molecular target: GlcNAc(b1-3)Gal(b1-3)GalNAc
In short: as §1

[31] = molecular target: GlcNAc(b1-3)Gal(b1-4)Glc
In short: as §1

[32] = molecular target: GlcNAc(b1-3)Gal(b1-4)GlcNAc
In short: as §1

[33] = molecular target: GlcNAc(b1-3)Gal(b1-4)GlcNAc(b1-2)Man(a1-3)[GlcNAc(b1-3)Gal(b1-4)GlcNAc(b1-2)Man(a1-6)]Man(b1-4)GlcNAc(b1-4)GlcNAc
In short: as §1

[34] = molecular target: GlcNAc(b1-3)Gal(b1-4)GlcNAc(b1-2)Man(a1-3)[GlcNAc(b1-3)Gal(b1-4)GlcNAc(b1-2)Man(a1-6)]Man(b1-4)GlcNAc(b1-4)[Fuc(a1-6)]GlcNAc
In short: as §1

[35] = molecular target: GlcNAc(b1-3)Gal(b1-4)GlcNAc(b1-2)[GlcNAc(b1-3)Gal(b1-4)GlcNAc(b1-6)]Man(a1-6)[GlcNAc(b1-3)Gal(b1-4)GlcNAc(b1-2)Man(a1-3)]Man(b1-4)GlcNAc(b1-4)GlcNAc
In short: as §1

[36] = molecular target: GlcNAc(b1-3)Gal(b1-4)GlcNAc(b1-3)Gal(b1-4)GlcNAc
In short: as §1

[37] = molecular target: GlcNAc(b1-3)Gal(b1-4)GlcNAc(b1-3)Gal(b1-4)GlcNAc(b1-2)Man(a1-3)[GlcNAc(b1-3)Gal(b1-4)GlcNAc(b1-3)Gal(b1-4)GlcNAc(b1-2)Man(a1-6)]Man(b1-4)GlcNAc(b1-4)GlcNAc
In short: as §1

[38] = molecular target: GlcNAc(b1-3)Gal(b1-4)GlcNAc(b1-3)Gal(b1-4)GlcNAc(b1-2)Man(a1-3)[GlcNAc(b1-3)Gal(b1-4)GlcNAc(b1-3)Gal(b1-4)GlcNAc(b1-2)Man(a1-6)]Man(b1-4)GlcNAc(b1-4)[Fuc(a1-6)]GlcNAc
In short: as §1

[39] = molecular target: GlcNAc(b1-3)Gal(b1-4)GlcNAc(b1-3)Gal(b1-4)GlcNAc(b1-2)[GlcNAc(b1-3)Gal(b1-4)GlcNAc(b1-3)Gal(b1-4)GlcNAc(b1-6)]Man(a1-6)[GlcNAc(b1-3)Gal(b1-4)GlcNAc(b1-3)Gal(b1-4)GlcNAc(b1-2)Man(a1-3)]Man(b1-4)GlcNAc(b1-4)[Fuc(a1-6)]GlcNAc
In short: as §1

[40] = molecular target: GlcNAc(b1-3)Gal(b1-4)GlcNAc(b1-3)Gal(b1-4)GlcNAc(b1-3)Gal(b1-4)GlcNAc(b1-2)Man(a1-3)[GlcNAc(b1-3)Gal(b1-4)GlcNAc(b1-3)Gal(b1-4)GlcNAc(b1-3)Gal(b1-4)GlcNAc(b1-2)Man(a1-6)]Man(b1-4)GlcNAc(b1-4)GlcNAc
In short: as §1

[41] = molecular target: GlcNAc(b1-3)Gal(b1-4)GlcNAc(b1-3)Gal(b1-4)GlcNAc(b1-3)Gal(b1-4)GlcNAc(b1-2)Man(a1-3)[GlcNAc(b1-3)Gal(b1-4)GlcNAc(b1-3)Gal(b1-4)GlcNAc(b1-3)Gal(b1-4)GlcNAc(b1-2)Man(a1-6)]Man(b1-4)GlcNAc(b1-4)[Fuc(a1-6)]GlcNAc
In short: as §1

[42] = molecular target: GlcNAc(b1-3)Gal(b1-4)GlcNAc(b1-3)Gal(b1-4)GlcNAc(b1-3)Gal(b1-4)GlcNAc(b1-2)[GlcNAc(b1-3)Gal(b1-4)GlcNAc(b1-3)Gal(b1-4)GlcNAc(b1-3)Gal(b1-4)GlcNAc(b1-6)]Man(a1-6)[GlcNAc(b1-3)Gal(b1-4)GlcNAc(b1-3)Gal(b1-4)GlcNAc(b1-3)Gal(b1-4)GlcNAc(b1-2)Man(a1-3)]Man(b1-4)GlcNAc(b1-4)[Fuc(a1-6)]GlcNAc
In short: as §1

[43] = molecular target: GlcNAc(b1-3)Gal(b1-4)GlcNAc(b1-3)Gal(b1-4)GlcNAc(b1-3)Gal(b1-4)GlcNAc(b1-3)Gal(b1-4)GlcNAc(b1-2)Man(a1-3)[GlcNAc(b1-3)Gal(b1-4)GlcNAc(b1-3)Gal(b1-4)GlcNAc(b1-3)Gal(b1-4)GlcNAc(b1-3)Gal(b1-4)GlcNAc(b1-2)Man(a1-6)]Man(b1-4)GlcNAc(b1-4)GlcNAc
In short: as §1

[44] = molecular target: GlcNAc(b1-3)Gal(b1-4)GlcNAc(b1-3)Gal(b1-4)GlcNAc(b1-3)Gal(b1-4)GlcNAc(b1-3)Gal(b1-4)GlcNAc(b1-2)Man(a1-3)[GlcNAc(b1-3)Gal(b1-4)GlcNAc(b1-3)Gal(b1-4)GlcNAc(b1-3)Gal(b1-4)GlcNAc(b1-3)Gal(b1-4)GlcNAc(b1-2)Man(a1-6)]Man(b1-4)GlcNAc(b1-4)[Fuc(a1-6)]GlcNAc
In short: as §1

[45] = molecular target: GlcNAc(b1-3)Gal(b1-4)GlcNAc(b1-3)Gal(b1-4)GlcNAc(b1-3)Gal(b1-4)GlcNAc(b1-3)Gal(b1-4)GlcNAc(b1-2)[GlcNAc(b1-3)Gal(b1-4)GlcNAc(b1-3)Gal(b1-4)GlcNAc(b1-3)Gal(b1-4)GlcNAc(b1-3)Gal(b1-4)GlcNAc(b1-6)]Man(a1-6)[GlcNAc(b1-3)Gal(b1-4)GlcNAc(b1-3)Gal(b1-4)GlcNAc(b1-3)Gal(b1-4)GlcNAc(b1-3)Gal(b1-4)GlcNAc(b1-2)Man(a1-3)]Man(b1-4)GlcNAc(b1-4)[Fuc(a1-6)]GlcNAc
In short: as §1

B1: Pwp5 ND (Candida glabrata) (protein)
chain: MGSSHHHHHHSSGLVPRGSHMASANPVPLTNVCYFPEEYPRQAGFRAITAGLASTILQGSVDELLNYSGLSSLTTQQTTTTTPNFQLPTLPLPTNVYGLTVVPLYLLVQLQGYFVPPVSGQYTFSLENTNDAAIIFFGNPSAFPCGDLSAWPQASADDITVTDGTFPSRTLFLKAGVAYPMRISYYNSLGSGNLAVSFTDPGGTKRTNWNGYIWRYNSCSTCTYT
In the case of B1, the “glycan array binding signal (z-score)” value [1] is reported as 0.018, the “glycan array binding signal (z-score)” value [2] is reported as 0.076 and the “glycan array binding signal (z-score)” value [3] is reported as 0.299. The “glycan array binding signal (z-score)” value [4] was -0.554, the “glycan array binding signal (z-score)” value [5] was -0.035 and the “glycan array binding signal (z-score)” value [6] was -0.369. For the same binder, the “glycan array binding signal (z-score)” value [7] was -0.578, the “glycan array binding signal (z-score)” value [8] was -0.557 and the “glycan array binding signal (z-score)” value [9] was -0.199. The “glycan array binding signal (z-score)” value [10] was -0.128, the “glycan array binding signal (z-score)” value [11] was 0.155 and the “glycan array binding signal (z-score)” value [12] was 0.138. For the same binder, the “glycan array binding signal (z-score)” value [13] was -0.447, the “glycan array binding signal (z-score)” value [14] was -0.171 and the “glycan array binding signal (z-score)” value [15] was -0.376. For the same binder, the “glycan array binding signal (z-score)” value [16] was -0.531, the “glycan array binding signal (z-score)” value [17] was 0.222 and the “glycan array binding signal (z-score)” value [18] was -0.407. For the same binder, the “glycan array binding signal (z-score)” value [19] was -0.939, the “glycan array binding signal (z-score)” value [20] was -0.687 and the “glycan array binding signal (z-score)” value [21] was -0.667. For the same binder, the “glycan array binding signal (z-score)” value [22] was -0.405, the “glycan array binding signal (z-score)” value [23] was -0.579 and the “glycan array binding signal (z-score)” value [24] was -0.099. For the same binder, the “glycan array binding signal (z-score)” value [25] was 3.15, the “glycan array binding signal (z-score)” value [26] was -0.252 and the “glycan array binding signal (z-score)” value [27] was -0.43. The “glycan array binding signal (z-score)” value [28] was -0.494, the “glycan array binding signal (z-score)” value [29] was -0.375 and the “glycan array binding signal (z-score)” value [30] was 0.032. For the same binder, the “glycan array binding signal (z-score)” value [31] was -0.468, the “glycan array binding signal (z-score)” value [32] was -0.273 and the “glycan array binding signal (z-score)” value [33] was -0.568. The “glycan array binding signal (z-score)” value [34] was 0.294, the “glycan array binding signal (z-score)” value [35] was 1.99 and the “glycan array binding signal (z-score)” value [36] was -0.44. For the same binder, the “glycan array binding signal (z-score)” value [37] was 0.413, the “glycan array binding signal (z-score)” value [38] was -0.305 and the “glycan array binding signal (z-score)” value [39] was 1.62. The “glycan array binding signal (z-score)” value [40] was 0.239, the “glycan array binding signal (z-score)” value [41] was 0.018 and the “glycan array binding signal (z-score)” value [42] was 1.57. The “glycan array binding signal (z-score)” value [43] was 0.063, the “glycan array binding signal (z-score)” value [44] was -0.937 and the “glycan array binding signal (z-score)” value [45] was 1.86.
